Laboratory results as given in the BET-seq Pho4 binding data (Le et al. 2018).
The other results are listed elsewhere or left out. These are noisy estimates, calculated here from bound and input reads.

The sequences below were run against T1, Pho4 (S. cerevisiae) (UniProt P07270) (assay: relative binding free energy (BET-seq); higher = weaker binding). Conditions: reference: library average.
T1 sequence: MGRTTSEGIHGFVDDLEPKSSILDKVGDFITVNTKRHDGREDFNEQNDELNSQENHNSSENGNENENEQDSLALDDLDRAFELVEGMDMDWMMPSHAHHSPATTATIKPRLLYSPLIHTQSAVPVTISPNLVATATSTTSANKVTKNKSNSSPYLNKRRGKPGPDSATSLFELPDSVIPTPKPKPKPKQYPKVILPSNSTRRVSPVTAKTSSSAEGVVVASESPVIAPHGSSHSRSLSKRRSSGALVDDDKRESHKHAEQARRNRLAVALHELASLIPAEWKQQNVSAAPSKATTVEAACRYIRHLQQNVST

| Sequence | relative binding free energy [kJ/mol] |
| --- | --- |
| AGTTACACGTGTGGTC | 0.837 |
| GTGGGCACGTGGTGTA | -0.628 |
| TAAAGCACGTGTTGTG | -0.879 |
| AGTGTCACGTGATAAT | 0.46 |
| TCTTGCACGTGAGTTG | 1.13 |
| AGCCACACGTGGGGGG | -0.586 |
| TTCGACACGTGGTAAT | -0.0418 |
| GGAGACACGTGGGCTT | -0.0418 |
| AAATACACGTGTTGAG | 0.669 |
| GGCTGCACGTGCGGCG | -0.167 |
| TATAACACGTGCTGGT | -0.502 |
| TTGCGCACGTGGAGGT | -0.837 |
| GTCTGCACGTGATGTA | 0.711 |
| GCGGTCACGTGGGTGA | 0.293 |
| TGGTGCACGTGGGAAC | -0.753 |
| GGTTGCACGTGGGCTT | -0.126 |
| GTGTTCACGTGGCTAG | 0.46 |
| AGGAACACGTGTCGGG | 0.0418 |
| GGGGACACGTGTTAGA | 1.17 |
| AAGTCCACGTGATGGG | 0.628 |
| CGTTTCACGTGGAAGA | 1.46 |
| TGTCACACGTGTTGGC | 0.209 |
| TGATACACGTGGTCTT | 0.418 |

| Sequence | relative binding free energy [kJ/mol] |
| --- | --- |
| GGGGCCACGTGAGTGC | 0.711 |
| AGTCGCACGTGAAGTG | 0.879 |
| ACTGGCACGTGGGAGA | -0.795 |
| GATTTCACGTGTTTAT | 1.26 |
| ATTAGCACGTGGTGCG | -0.586 |
| GGGGGCACGTGGTCGG | -0.879 |
| GTTGGCACGTGTTGAC | 0.0418 |
| GTTTGCACGTGTTCTA | 0.46 |
| GGAAACACGTGAGGGT | 0.795 |
| GAGGGCACGTGGGATC | -0.126 |
| TGGTTCACGTGCCGTG | 0.879 |
| TTAGACACGTGGGTCA | -0.502 |
| TTCATCACGTGGCAGT | 0.586 |
| TTGAGCACGTGATGAG | 0.167 |
| ATGTTCACGTGGTGGC | 0.795 |
| ATTATCACGTGATTGT | 1.05 |
| GGGTGCACGTGTCAGG | 0.46 |
| AAGAGCACGTGGGGAA | -1.09 |
| AGCGTCACGTGTGTTA | 0.209 |
| CGGGGCACGTGTACGT | -0.46 |
| TTTTGCACGTGATCAA | 0.251 |
| TTGCTCACGTGGGAAG | 1.34 |
| TGGTTCACGTGACATG | 0.879 |

| Sequence | relative binding free energy [kJ/mol] |
| --- | --- |
| GGATACACGTGTGGAA | 1.05 |
| TTTGTCACGTGTCATC | 0.46 |
| GGTAGCACGTGCCGTG | -0.251 |
| TTATGCACGTGACGGT | 0.0418 |
| AAGATCACGTGGGTGA | -0.0837 |
| GAGTGCACGTGTACTG | -0.0418 |
| TGCCTCACGTGGTTGT | 0.377 |
| TGGAACACGTGTGGGC | 0.418 |
| GGTTACACGTGGGACG | 0.46 |
| TGAATCACGTGGTTAG | 0.586 |
| TTATGCACGTGGTAGA | -0.46 |
| GATTGCACGTGTGCTT | 0.711 |
| GTCTGCACGTGGTGGT | 0.167 |
| GTGGGCACGTGCGGGA | -0.879 |
| GGGTACACGTGCTTAT | 0.628 |
| TGGAGCACGTGAATGG | 1.13 |
| TGCAGCACGTGGTTTT | -0.879 |
| GGGATCACGTGTCGGA | 0.753 |
| TTAAGCACGTGGGTAA | -0.837 |
| AATGACACGTGTGTAG | 0.126 |
| ATAGTCACGTGTTGCA | 0.544 |
| GGACTCACGTGTTGAG | 0.879 |
| TGTGCCACGTGATGGG | 0 |

| Sequence | relative binding free energy [kJ/mol] |
| --- | --- |
| CAGCTCACGTGGGGGT | 0.544 |
| CGTGTCACGTGATATT | 0.92 |
| GATTTCACGTGGTTTA | 0.962 |
| CTGCACACGTGGGTTT | 0.418 |
| TGAGACACGTGTTAGG | 0.335 |
| TGTTGCACGTGCGGAG | -0.209 |
| TTTCTCACGTGTAGAA | 1.34 |
| AAGGACACGTGTTGAT | 0.0837 |
| TGGTTCACGTGACTTA | 0.837 |
| TGTGCCACGTGCTAGG | -0.837 |
| TTGCCCACGTGTTGTT | -0.46 |
| ACTGTCACGTGTTTGG | 0.251 |
| CGGGTCACGTGTAGAA | 0.795 |
| GGGGACACGTGATTGC | 0.837 |
| ATATGCACGTGGCTGG | -0.46 |
| TTATGCACGTGTGTAC | -0.167 |
| TGTACCACGTGTGGGA | -0.209 |
| TACGGCACGTGTGTGC | -0.251 |
| ACTGGCACGTGTGGAT | -0.0418 |
| TAATTCACGTGTTGGG | 1.3 |
| GTGTCCACGTGAGGTG | 0.753 |
| GGCATCACGTGCGGGT | 0.753 |
| TGTGACACGTGCAAGT | -0.209 |

| Sequence | relative binding free energy [kJ/mol] |
| --- | --- |
| GGTAACACGTGAAGTT | 1.88 |
| GGCAGCACGTGTTTAT | 0.586 |
| TTGCACACGTGATTTT | 0.879 |
| GTGCTCACGTGTGGAT | 1.21 |
| GTTTGCACGTGATGGG | 1.09 |
| GTGTTCACGTGAACTG | 0.962 |
| ATCTTCACGTGTTGGC | 1.05 |
| AGTAGCACGTGTGGGG | -0.335 |
| TTGTACACGTGCATTA | 0.293 |
| GGTTACACGTGTCTGA | 0.753 |
| TGCAGCACGTGTAGGT | -0.209 |
| GGGGCCACGTGTCGGT | -0.795 |
| AAGCTCACGTGTGTGT | 0.209 |
| CTCTTCACGTGTGTTT | 1.51 |
| TTAGACACGTGAGGAG | 0.753 |
| GTAGGCACGTGTTGAA | 0 |
| AGTTACACGTGCGGGG | 0.92 |
| AGATCCACGTGTGAGT | 1.05 |
| CGGTTCACGTGGGATT | 0.837 |
| GTAGGCACGTGTGGTT | 0.126 |
| ATGTTCACGTGGCAGG | 0.669 |
| TAAGTCACGTGGAATT | 0.46 |
| TGCTTCACGTGAATGT | 1.38 |
